Experimental data taken from PubChem BioAssay AID485360 (National Center for Advancing Translational Sciences (NCATS), 2010).
Out of some 230,000 compounds screened, about 1,500 (0.65%) were called active. The inconclusive results got no clear call from the source; some entries with a clear call stand among them for comparison. The call rests on the fitted dose curve; in most records, active means well fitted inhibition curve with a large enough effect; inconclusive means small, poorly fitted or top-dose-only effect; inactive means no such curve, though single readings can be large or run the other way. Potencies of inconclusive entries are doubtful fits and often do not repeat.

What follows are compounds tested against Lethal(3)malignant brain tumor-like protein 1 (Homo sapiens) (UniProt Q9Y468) (assay: qHTS Assay for the Inhibitors of L3MBTL1). Conditions: AlphaScreen L3MBTL1–H3K9me1 peptide binding; series mostly up to 57.1 µM.
UniProt Q9Y468, sequence (Q9Y468 whole entry, looked up): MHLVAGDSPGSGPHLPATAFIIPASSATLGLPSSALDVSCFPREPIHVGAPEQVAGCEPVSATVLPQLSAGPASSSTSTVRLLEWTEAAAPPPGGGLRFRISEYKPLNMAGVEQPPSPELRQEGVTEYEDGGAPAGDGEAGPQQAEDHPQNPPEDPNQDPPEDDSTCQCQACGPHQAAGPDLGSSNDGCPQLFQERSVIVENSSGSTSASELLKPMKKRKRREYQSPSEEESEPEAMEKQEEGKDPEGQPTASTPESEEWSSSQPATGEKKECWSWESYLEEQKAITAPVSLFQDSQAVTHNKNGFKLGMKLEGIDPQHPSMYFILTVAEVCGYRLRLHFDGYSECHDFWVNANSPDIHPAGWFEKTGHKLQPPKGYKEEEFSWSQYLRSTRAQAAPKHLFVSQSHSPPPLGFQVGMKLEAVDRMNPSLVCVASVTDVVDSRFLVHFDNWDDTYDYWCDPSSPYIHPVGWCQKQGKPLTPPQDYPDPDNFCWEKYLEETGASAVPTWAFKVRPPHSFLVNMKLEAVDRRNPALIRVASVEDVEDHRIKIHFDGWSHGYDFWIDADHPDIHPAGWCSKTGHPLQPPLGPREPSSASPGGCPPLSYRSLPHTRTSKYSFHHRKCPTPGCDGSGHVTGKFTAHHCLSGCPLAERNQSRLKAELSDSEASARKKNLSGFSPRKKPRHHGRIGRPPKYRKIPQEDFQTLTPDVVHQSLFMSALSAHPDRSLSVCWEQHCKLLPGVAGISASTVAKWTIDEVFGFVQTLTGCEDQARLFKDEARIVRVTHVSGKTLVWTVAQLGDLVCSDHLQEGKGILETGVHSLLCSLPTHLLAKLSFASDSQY
Method in brief: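 Displacement of a biotinylated histone H3(1-15) peptide monomethylated at Lys9 (75 nM) from L3MBTL1 (50 nM) was measured by AlphaScreen after a 30 min room-temperature compound incubation; cefsulodin titration served as intraplate control.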
Further: nearly all actives have a fitted effect of over 60% in size.
Potency means the concentration at half of the fitted maximal effect; tags describe the fitted curve by direction and shape.

Row | Compound | Potency
1 | C#CC[N+]1(CC#Cc2ccccc2)CCCC1 | inactive
2 | COc1ccccc1NC(=O)N(C1CCCC1)C1CCN(C(C)=O)CC1 | inactive
3 | COc1cccc(C(=O)/C=C/c2ccc(N3CCCCC3)c([N+](=O)[O-])c2)c1 | inconclusive: 31.6 µM [inhibitor, partial curve]
4 | CCn1ccnc1CNCc1cn(-c2cc(C)ccc2C)nc1-c1ccccc1 | inconclusive: 2 µM [inhibitor, full curve, poor fit]
5 | O=C(Nc1ccc(CSc2ccccc2)cc1)c1ccc(CN2CCOCC2)cc1 | inconclusive: 0.794 µM [inhibitor, single point]
6 | Cc1cc(-c2nc3c4c5c(sc4[nH]c(=O)n3n2)CCC5)c(C)o1 | active: 8.91 µM
7 | COc1ccc(Nc2ccc(N3C(=O)CCC3=O)cc2[N+](=O)[O-])cn1 | inconclusive: 0.708 µM [inhibitor, single point]
8 | N#Cc1nc(COc2ccc(F)cc2)oc1N1CCCCC1 | inconclusive: 39.8 µM [inhibitor, single point]
9 | O=C1CN(C(=O)c2cc([N+](=O)[O-])ccc2Cl)C(c2ccc(F)cc2)c2cc(F)ccc2N1 (stereo not given) | inactive
10 | COc1cccc(C(=O)NCC(c2cccs2)N2CCc3ccccc32)c1 (stereo not given) | inconclusive: 11.2 µM [inhibitor, partial curve]
11 | O=C(NC1CCN(Cc2ccccc2)CC1)c1c(F)cccc1F | inconclusive: 0.708 µM [inhibitor, single point]
12 | COc1ccc(CC(=O)N/N=C/c2cccn2-c2ccc([N+](=O)[O-])cc2)cc1OC | inconclusive: 15.8 µM [inhibitor, partial curve]
13 | CCn1c(SCC(=O)c2ccc(O)c(O)c2)nnc1-c1ccccc1 | inconclusive: 22.4 µM [inhibitor, single point]
14 | COc1cc(/C=N/NC(=O)CC#N)cc(Br)c1O | inconclusive: 3.55 µM [inhibitor, single point]
15 | CC(C)c1ccc(S(=O)(=O)c2ccc(NN)cc2)cc1 | inactive
16 | C(=C\n1nnc2ccccc21)/c1ccc[nH]1 | inconclusive: 31.6 µM [inhibitor, single point]
17 | COC(=O)COc1ccc(NC(=O)C(c2ccccc2)c2ccccc2)cc1 | inconclusive: 15.8 µM [inhibitor, partial curve]
18 | Cc1ccc(NC(=O)COC(=O)/C(=C/c2cccs2)c2cccs2)cc1S(=O)(=O)N(C)C | inconclusive: 22.4 µM [inhibitor, single point]
19 | CCCCn1nc(C(=O)N(CC(C)C)c2c(N)n(CCCC)c(=O)[nH]c2=O)c2ccccc2c1=O | inactive
20 | CC1Cc2ccccc2N1C(=S)NC(=O)c1cccc(Br)c1 (stereo not given) | inconclusive: 31.6 µM [inhibitor, single point]
21 | COc1ccc(/C=C2\C(=O)NC(=S)N2C(=O)c2ccc(F)cc2)cc1 | inconclusive: 35.5 µM [inhibitor, single point]
22 | CCOC(=O)Cc1c(C)[nH]n(-c2ccccc2)c1=O | inconclusive: 8.91 µM [inhibitor, partial curve]
23 | O=C1NC(=S)N/C1=C/c1ccc(-c2c(Br)cc([N+](=O)[O-])cc2Br)o1 | inconclusive: 39.8 µM [inhibitor, single point]

Row | Compound | Potency
24 | Cc1cccc(N2CCN(S(=O)(=O)c3cccc4nonc34)CC2)c1C | inconclusive: 25.1 µM [inhibitor, single point]
25 | CCCCNC(=O)c1nn2c(C(F)(F)F)cc(-c3ccc(OC)cc3)nc2c1Br | inactive
26 | CCN(CC)CCOC(=O)/C=C/c1ccccc1OC | inactive
27 | O=C(Nc1ccc(Cl)cc1)N1CCC(c2nc(-c3ccc(F)cc3)no2)CC1 | inconclusive: 0.891 µM [inhibitor, single point]
28 | O=C(CCc1nc2sc3c(c2c(=O)[nH]1)CCCC3)Nc1ccccc1Cl | inconclusive: 28.2 µM [inhibitor, partial curve]
29 | CN1CCC(=NNC(=O)C(=O)NCc2ccccc2)CC1 | inconclusive: 0.794 µM [inhibitor, single point]
30 | CCn1c(NC(=S)Nc2ccccc2)nc2ccccc21 | inconclusive: 12.6 µM [inhibitor, partial curve]
31 | Brc1ccc(CSc2nnc(-c3ccco3)o2)cc1 | inactive
32 | CCCC(C)NC(=O)COc1ccc(S(=O)(=O)c2ccc(OCC(=O)NC(C)CCC)cc2)cc1 (stereo not given) | inconclusive: 4.47 µM [inhibitor, single point]
33 | Cc1[nH]c2ccc(C(=O)OC(C)C(=O)N(C)c3ccccc3)cc2c1C (stereo not given) | inactive
34 | COCCCNc1oc(-c2cccs2)nc1S(=O)(=O)c1ccc(C)cc1 | inactive
35 | O=c1[nH][nH]c2cc(=O)n(-c3ccc(Cl)cc3)nc12 | inconclusive: 15.8 µM [inhibitor, partial curve, poor fit]
36 | CCCCn1c(N)c(N(CCOC)C(=O)c2cc(-c3ccc(OC)c(OC)c3)nc3ccccc23)c(=O)[nH]c1=O | inactive
37 | CC(=O)c1cccc2c(O)c(C3=Nc4ccccc4C3=O)[nH]c12 | inactive
38 | Cc1ccc(NC2=C(NC(=O)c3ccccc3)C(=O)c3ccccc3C2=O)cc1Cl | inconclusive: 28.2 µM [inhibitor, partial curve]
39 | CC(=O)c1cccc(S(=O)(=O)N(C)C2CCN(C)CC2)c1 | inconclusive: 22.4 µM [inhibitor, single point]
40 | OCCn1nc2c3ccccc3nc-2n(-c2ccccc2)c1=S | inactive
41 | CC1(C)CC2CC(C)(CN2/C=N/c2sc3c(c2C#N)CC(C)(C)NC3(C)C)C1 (stereo not given) | inconclusive: 22.4 µM [inhibitor, single point]
42 | CC(=O)Nc1ccn(-c2ccccc2)n1 | inconclusive: 8.91 µM [inhibitor, full curve, poor fit]
43 | CCOc1ccc(NC(=O)NNC(=O)c2ccc(CC)s2)cc1 | inactive
44 | Cc1ccc(C2(C)NC(=O)N(CC(=O)Nc3ccccc3N3CCCC3)C2=O)cc1 (stereo not given) | active: 2.82 µM
45 | COc1ccccc1-c1nc(=S)c(C(C)=O)c(C)[nH]1 | inconclusive: 6.31 µM [inhibitor, single point]
